# The RNAGym collection of RNA variant scans (doi:10.7554/elife.90254)
# The source gives no read counts; variants with many changes may rest on few reads.
# B1: LINE1-mini (parent)
# chain: GGCAGAGCUCAACACAGCGUGGCAAAGUGGCUGUGGCUAGACUGCC
# Variants of: B1
# Assay: self-cleavage, relative activity (ratio to wild type); higher = more cleavage; in vitro, sequencing; the parent is a self-cleaving ribozyme
row,Variant,self-cleavage
1,G1A G22C A25U G35C,0.02
2,G1A U20A G27U G44U C46A,0.02
3,G1A C15U G40C,0.06
4,G1A G19C G29U C45G,0.26
5,G1A G5U C10A,0.09
6,G1A G7C C23A A25G,0.12
7,G1A G19U A24U G33A,0.04
8,G1A G2C A12U C13A C31A,0.08
9,G1A G19A C45G,0.98
10,G1C A4G G5A,0.03
11,G1A G2C C23A,0.17
12,G1A G7A C8U G22U C23G,1
13,G1A G5A C10G G30U,0.11
14,G1C A6C C13G C31G U34A,0
15,G1A G2C C8U A25C U34A C42U,0.17
16,G1A G19U G33C,0.06
17,G1A G27A C31U,0.8
18,G1A G27A U38G,0.05
19,G1A G7A G19A,2.93
20,G1A C15G C18U G22A C31G C45U,0.02
21,G1A G5A C23A U28A,0.07
22,G1C A4U G19U G30U,0.01
23,G1A C23A A25C,0.46
24,G1A G33U A41U,0.12

row,Variant,self-cleavage
1,G1A G7A C8U U20C C23U G36U C45A,0.7
2,G1A C23U A25U,1.11
3,G1A C18G U28G C46A,1.83
4,G1A G2A C8A A14C U28C C45U,1.08
5,G1A G36A G40U A41U,0.69
6,G1A G5U G33U C46A,0.04
7,G1A G7C C8G G22A C31G G40U C46U,0.03
8,G1A G2U C10U U28C C31U G40A,0.02
9,G1A G36A C37U,0.1
10,G1A G36A C37A,0.03
11,G1A C15U G21U G22A G36U,0.22
12,G1A G17U A39C G40A,0.02
13,G1A G2A U9A G19C G22C A26U G33A,0.24
14,G1A G2U G33U,0.43
15,G1A G22U C37A,0.15
16,G1A C37A A39G,0.08
17,G1A G7U C13U A41C,0.08
18,G1A G2A U38G,0.13
19,G1A C23G G27A,0.3
20,G1C A6U G30A C46U,0.06
21,G1A G5U G29C,0.02
22,G1A G7A G21A,1.8
23,G1A U20G G27A G29U,0.9
24,G1A G36A C46U,0.36

row,Variant,self-cleavage
1,G1A U9C A14G,0.07
2,G1C A4G G27A A39C G40C,0.02
3,G1A G21A C31A C42G,0.02
4,G1C A4C A25G U38G,0.01
5,G1A G27A G33A,0.03
6,G1A G5C A11U G19U A25U G30C C31A A41U,0.01
7,G1A G29U G33C C37U,0.05
8,G1C A6C G7U C23A G36U A39C C45A,0.01
9,G1A G5U U28G G30A C31A,0.06
10,G1A G5A G36C,0.21
11,G1A U9A C13A G19U G40A,0.23
12,G1A C15U A24C G27C U28C,2.51
13,G1A C15G G27C,0.06
14,G1A G5U C18U A39U,0.05
15,G1A G30A C31U,0.22
16,G1C A4G U9G A24G,0.02
17,G1A G5U C13U G29U,0.06
18,G1A G2A G7C G17U C18A A24C U28G,0.06
19,G1A G19C U20C,0.1
20,G1A G36U A41G,0.16
21,G1A U28A C45U,0.34
22,G1C A6C G7A A16G C18U G35A C46U,0.01
23,G1A G17A G40A,0
24,G1A G2A G7C C31U,0.14

row,Variant,self-cleavage
1,G1A G5U G17A C23U A41C,0.06
2,G1A G5C G21C G33U G36U,0.11
3,G1A G2C G22A G30C C31U A39U,0.13
4,G1A G40C C45U,0.01
5,G1A U28C G40U,0.1
6,G1C A4G U28A,0.1
7,G1A G2U G19U G35U,0.03
8,G1A U9G A24C U38G,0.08
9,G1A G5A G21A,0.17
10,G1A G7A A16U C23A U34G A41U,0.37
11,G1A C18U C23G G27C A39C,0.04
12,G1A G5U G33A U38A G40U,0.05
13,G1A G2A A11U,0.1
14,G1A G5U C37U,0.04
15,G1A G30A U34G C42G,0.04
16,G1C A4C G21U G27A U32A,0.07
17,G1A C18U G27C,1.28
18,G1C A4C C46A,0.04
19,G1A U9C C42G,0.06
20,G1A G5U A12G C15G G44U,0.05
21,G1A G22C A24U U34C C42G,0
22,G1A G5A A11U A39G,0.04
23,G1C A6U A14U C18G U20C,0.01
24,G1A G2A A16C C46U,0.43

row,Variant,self-cleavage
1,G1A G7U C46A,0.1
2,G1A G2U U28G G29A C31A,0.07
3,G1C A4G G36C U38G U43A,0.01
4,G1A C15G G30C C31A G35A,0.02
5,G1A G5C G44C,0.09
6,G1A G35U C46U,0.34
7,G1A C18G C37A,0.04
8,G1A G33U G44A,0.05
9,G1A G29A G36U G44C,0.21
10,G1C A6C U20C G33U,0.02
11,G1C A4C C10G C37U,0.01
12,G1C A4U C8G U9A U32A C42G,0.02
13,G1A G33A G35C,0.05
14,G1A G5A A16G,0.15
15,G1A U9G G17C U43C,0
16,G1A G21A G33C C46U,0.09
17,G1A G2U A11U U43A,0.01
18,G1C A6C C15A A39G,0.04
19,G1A G22A G27A,0.13
20,G1A C18A A24G,0.09
21,G1A G5C C8U A14G A24C G27C,0.4
22,G1A G17A C18G,0.05
23,G1C A6G G7A U20C G30C U43G,0.01
24,G1C A4C G33U,0.01

row,Variant,self-cleavage
1,G1A G7U C10A U38G,0.04
2,G1A U9C C10G C45G,0.05
3,G1C A6G A11C C18G A26G G35A,0
4,G1A G5U C23U,0.06
5,G1A C18A G27C G36C U43A,0.03
6,G1A G5U A12G A41U,0.07
7,G1A C15A U20A,0.06
8,G1A G7A A26U,0.43
9,G1A G30A C37G,0.05
10,G1A G30C C37U,0.11
11,G1C A6G G7A G29C G33C,0.01
12,G1A G36A C37G G40C U43A,0.02
13,G1A C23U U43A,0.04
14,G1C A4C U9G C10U C37G,0.01
15,G1A C18U C45G,0.07
16,G1A G2C C8A A12C C18A A26U G29U U38C,0.01
17,G1A G19C C23G G27U U34G G44U,0.04
18,G1A G29U G35U,0.1
19,G1A G35A G44A,0.06
20,G1A G5U G40C,0.01
21,G1A G2A C23A A25G,0.43
22,G1A G2U G7A C8G G30A,0.43
23,G1A G2U C3G C13A C18G U28C U32A,0.17
24,G1C A6U G22A G36U,0.03

row,Variant,self-cleavage
1,G1A C18U A41G C46U,0.01
2,G1A G2U G33U A39C,0.06
3,G1A U9C G17A,0.06
4,G1C A4C C15U C18A A26G G36U U38C,0.05
5,G1C A6U C10A,0
6,G1A G2U A6G U9G G29U,0.05
7,G1C A6U G19A U20A A25C G30A,0.03
8,G1A G2U C13U U38C,0.09
9,G1A G7U C8G G27A,0.77
10,G1A G21U G33C,0.08
11,G1A G5U U20G C23U C31U C45A,0.06
12,G1A G7U G30C,0.11
13,G1A G33C A41U C46G,0.04
14,G1A G7U G27A,0.19
15,G1C A4U C37U,0.02
16,G1A C23U U38C G44U C45A,0.03
17,G1A G7A C42A,0.15
18,G1A U9C C13A U28C G29C C37A A39C,0.03
19,G1A G2A C10G G22U,0.2
20,G1A G33C G36C G44A,0.07
21,G1A C31G U32A,0.07
22,G1A U9A U20C,0.18
23,G1A C18U U43G,0.03
